Sequences and labels used below:
T1: RBFOX1 RRM (Homo sapiens, UniProt Q9NWB1 109-208)
T1 sequence: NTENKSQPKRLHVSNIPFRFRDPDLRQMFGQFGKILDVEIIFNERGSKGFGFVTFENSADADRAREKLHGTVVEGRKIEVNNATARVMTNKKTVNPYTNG

B1: CGGGUGU (DNA:RNA)
RNA: GGGAGACCGGAAUUCAGAUUGUCCCGGGUGUUUAAAUCCCGUCGUAGCCACCA
DNA 1: CAATCTGAATTCCGGTCTCCC
DNA 2: TGGTGGCTACGACGGGATT
B2: CGUACGA (DNA:RNA)
RNA: B1 RNA with G27U, G28A, U29C, U31A
DNA 1: CAATCTGAATTCCGGTCTCCC
DNA 2: TGGTGGCTACGACGGGATT
B3: AACGUGA (DNA:RNA)
RNA: B1 RNA with C25A, G26A, G27C, U31A
DNA 1: CAATCTGAATTCCGGTCTCCC
DNA 2: TGGTGGCTACGACGGGATT
B4: AAUCUGU (DNA:RNA)
RNA: B1 RNA with C25A, G26A, G27U, G28C
DNA 1: CAATCTGAATTCCGGTCTCCC
DNA 2: TGGTGGCTACGACGGGATT
B5: AGCCGCC (DNA:RNA)
RNA: B1 RNA with C25A, G27C, G28C, U29G, G30C, U31C
DNA 1: CAATCTGAATTCCGGTCTCCC
DNA 2: TGGTGGCTACGACGGGATT
B6: CAGGGUA (DNA:RNA)
RNA: B1 RNA with G26A, U29G, G30U, U31A
DNA 1: CAATCTGAATTCCGGTCTCCC
DNA 2: TGGTGGCTACGACGGGATT
B7: CAAAUAA (DNA:RNA)
RNA: B1 RNA with G26A, G27A, G28A, G30A, U31A
DNA 1: CAATCTGAATTCCGGTCTCCC
DNA 2: TGGTGGCTACGACGGGATT
B8: GCGACCU (DNA:RNA)
RNA: B1 RNA with C25G, G26C, G28A, U29C, G30C
DNA 1: CAATCTGAATTCCGGTCTCCC
DNA 2: TGGTGGCTACGACGGGATT
B9: GGAUAUC (DNA:RNA)
RNA: B1 RNA with C25G, G27A, G28U, U29A, G30U, U31C
DNA 1: CAATCTGAATTCCGGTCTCCC
DNA 2: TGGTGGCTACGACGGGATT
B10: GACCCUA (DNA:RNA)
RNA: GGGAGACCGGAAUUCAGAUUGUCCGACCCUAUUAAAUCCCGUCGUAGCCACCA
DNA 1: CAATCTGAATTCCGGTCTCCC
DNA 2: TGGTGGCTACGACGGGATT
B11: GCAUAGU (DNA:RNA)
RNA: B1 RNA with C25G, G26C, G27A, G28U, U29A
DNA 1: CAATCTGAATTCCGGTCTCCC
DNA 2: TGGTGGCTACGACGGGATT
B12: UUGGAAA (DNA:RNA)
RNA: B1 RNA with C25U, G26U, U29A, G30A, U31A
DNA 1: CAATCTGAATTCCGGTCTCCC
DNA 2: TGGTGGCTACGACGGGATT
B13: CAGAUUU (DNA:RNA)
RNA: B1 RNA with G26A, G28A, G30U
DNA 1: CAATCTGAATTCCGGTCTCCC
DNA 2: TGGTGGCTACGACGGGATT
B14: AUCUAUC (DNA:RNA)
RNA: B10 RNA with G25A, A26U, C28U, C29A, A31C
DNA 1: CAATCTGAATTCCGGTCTCCC
DNA 2: TGGTGGCTACGACGGGATT
B15: UCGCCCU (DNA:RNA)
RNA: B1 RNA with C25U, G26C, G28C, U29C, G30C
DNA 1: CAATCTGAATTCCGGTCTCCC
DNA 2: TGGTGGCTACGACGGGATT
B16: UCGCGUA (DNA:RNA)
RNA: B10 RNA with G25U, A26C, C27G, C29G
DNA 1: CAATCTGAATTCCGGTCTCCC
DNA 2: TGGTGGCTACGACGGGATT
B17: ACAUCGU (DNA:RNA)
RNA: B1 RNA with C25A, G26C, G27A, G28U, U29C
DNA 1: CAATCTGAATTCCGGTCTCCC
DNA 2: TGGTGGCTACGACGGGATT
B18: CGAAUGC (DNA:RNA)
RNA: B1 RNA with G27A, G28A, U31C
DNA 1: CAATCTGAATTCCGGTCTCCC
DNA 2: TGGTGGCTACGACGGGATT
B19: UCGAUCU (DNA:RNA)
RNA: B1 RNA with C25U, G26C, G28A, G30C
DNA 1: CAATCTGAATTCCGGTCTCCC
DNA 2: TGGTGGCTACGACGGGATT
B20: CCUUAUU (DNA:RNA)
RNA: B1 RNA with G26C, G27U, G28U, U29A, G30U
DNA 1: CAATCTGAATTCCGGTCTCCC
DNA 2: TGGTGGCTACGACGGGATT
B21: AAAAGGC (DNA:RNA)
RNA: B1 RNA with C25A, G26A, G27A, G28A, U29G, U31C
DNA 1: CAATCTGAATTCCGGTCTCCC
DNA 2: TGGTGGCTACGACGGGATT
B22: GAGAAUC (DNA:RNA)
RNA: B10 RNA with C27G, C28A, C29A, A31C
DNA 1: CAATCTGAATTCCGGTCTCCC
DNA 2: TGGTGGCTACGACGGGATT
B23: UGGUACC (DNA:RNA)
RNA: B1 RNA with C25U, G28U, U29A, G30C, U31C
DNA 1: CAATCTGAATTCCGGTCTCCC
DNA 2: TGGTGGCTACGACGGGATT
B24: GUGGAAU (DNA:RNA)
RNA: B1 RNA with C25G, G26U, U29A, G30A
DNA 1: CAATCTGAATTCCGGTCTCCC
DNA 2: TGGTGGCTACGACGGGATT
B25: AAAGUUU (DNA:RNA)
RNA: B1 RNA with C25A, G26A, G27A, G30U
DNA 1: CAATCTGAATTCCGGTCTCCC
DNA 2: TGGTGGCTACGACGGGATT
B26: AUGCACC (DNA:RNA)
RNA: B1 RNA with C25A, G26U, G28C, U29A, G30C, U31C
DNA 1: CAATCTGAATTCCGGTCTCCC
DNA 2: TGGTGGCTACGACGGGATT
B27: CCUCAGC (DNA:RNA)
RNA: B1 RNA with G26C, G27U, G28C, U29A, U31C
DNA 1: CAATCTGAATTCCGGTCTCCC
DNA 2: TGGTGGCTACGACGGGATT
B28: UGACUUU (DNA:RNA)
RNA: B1 RNA with C25U, G27A, G28C, G30U
DNA 1: CAATCTGAATTCCGGTCTCCC
DNA 2: TGGTGGCTACGACGGGATT
B29: CUUCCCA (DNA:RNA)
RNA: B10 RNA with G25C, A26U, C27U, U30C
DNA 1: CAATCTGAATTCCGGTCTCCC
DNA 2: TGGTGGCTACGACGGGATT
B30: CUAAUUA (DNA:RNA)
RNA: B1 RNA with G26U, G27A, G28A, G30U, U31A
DNA 1: CAATCTGAATTCCGGTCTCCC
DNA 2: TGGTGGCTACGACGGGATT
B31: CAAGUCC (DNA:RNA)
RNA: B1 RNA with G26A, G27A, G30C, U31C
DNA 1: CAATCTGAATTCCGGTCTCCC
DNA 2: TGGTGGCTACGACGGGATT

Positions count from the first letter of the chain named. This is one part of the list.

The target in the assay is T1, RBFOX1 RRM. As to the kind of experiment: EMSA; HiTS-Eq, 1 nM pool, 10 min; buffer printed only for the single-RNA assays: 10 mM Tris pH 7.5, 150 mM NaCl, 3.4 mM EDTA, 0.001% NP-40, 30 C. The conditions noted are these: tags: His6 N-terminal (pET28a); label: 5' 32P. An outline of the steps:
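Purified RbFox RRM (wild type or mutant) was equilibrated for 10 min in 50 µL with 1 nM of a 5′-radiolabelled pool of RNA with 7 randomized nucleotides, its flanks annealed to DNA oligonucleotides, across increasing protein concentrations. Free RNA was separated by 8% native PAGE, excised, reverse-transcribed, PCR-barcoded and sequenced on an Illumina HiSeq 2500. Relative association constants came from read-count changes of each variant against the control reaction, normalised to the cognate motif.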
(In general: In EMSA bound probe runs differently from free probe, usually more slowly.)
Regarding B1, the binding signal is 0.0321 KA relative to UGCAUGU. As to B2, the binding signal is 0.00639 KA relative to UGCAUGU. The same measure for B3: 0.00848 KA relative to UGCAUGU; for B4: 0.00722 KA relative to UGCAUGU.

B5: the binding signal is 0.00446 KA relative to UGCAUGU. For B6 the value was 0.0125 KA relative to UGCAUGU. As for B7, the binding signal is 0.00109 KA relative to UGCAUGU. Take B8: the binding signal was 0.0112 KA relative to UGCAUGU. Turning to B9, the binding signal is 0.014 KA relative to UGCAUGU. Consider B10, for which the binding signal is 0.00243 KA relative to UGCAUGU.

Take B11: the binding signal was 0.0104 KA relative to UGCAUGU. For B12 the value was 0.0106 KA relative to UGCAUGU. Turning to B13, the binding signal is 0.00643 KA relative to UGCAUGU. Turning to B14, the binding signal is 0.00278 KA relative to UGCAUGU. For the molecule B15, the binding signal is 0.00703 KA relative to UGCAUGU.

With B16, the binding signal is 0.0087 KA relative to UGCAUGU.

Regarding B17, the binding signal is 0.00239 KA relative to UGCAUGU. In the case of B18, the binding signal is 0.0214 KA relative to UGCAUGU. Regarding B19, the binding signal is 0.0103 KA relative to UGCAUGU. The same measure for B20: 0.00471 KA relative to UGCAUGU; for B21: 0.00573 KA relative to UGCAUGU; for B22: 0.0151 KA relative to UGCAUGU.

With B23, the binding signal is 0.0181 KA relative to UGCAUGU. Regarding B24, the binding signal is 0.0161 KA relative to UGCAUGU. For B25, the binding signal was 0.00559 KA relative to UGCAUGU. The same measure for B26: 0.0115 KA relative to UGCAUGU; for B27: 0.00826 KA relative to UGCAUGU. Turning to B28, the binding signal is 0.0147 KA relative to UGCAUGU.

Take B29: the binding signal was 0.00369 KA relative to UGCAUGU. With B30, the binding signal was 0.00185 KA relative to UGCAUGU.

On to B31, for which the binding signal was 0.00343 KA relative to UGCAUGU.

Values taken from PMC9911399, “Two distinct binding modes provide the RNA-binding protein RbFox with extraordinary sequence specificity”.
